Experimental data: PubChem BioAssay AID887 (National Center for Advancing Translational Sciences (NCATS), 2007)
“And” between values parts separate entries of the source, which are not always exact repeats. Identical values can stand only once. Screen size: about 74,000 compounds; about 1,100 (1.5%) were called active. The shares of active, inactive and inconclusive entries below differ from those in the screen. The call rests on the fitted dose curve; in most records, active means well fitted inhibition curve with a large enough effect; inconclusive means small, poorly fitted or top-dose-only effect; inactive means no such curve, though single readings can be large or run the other way. No potency is given beside an inconclusive call; the fits are too rough.

Target: Polyunsaturated fatty acid lipoxygenase ALOX15 (Homo sapiens) (UniProt P16050)
Test: qHTS Assay for Inhibitors of 15-hLO (15-human lipoxygenase); further: nearly all actives have a fitted effect of over 55% in size
Settings: purified 15hLO-1, xylenol orange hydroperoxide absorbance; activity change, negative = inhibition: at 57.1 µM (top of the series) unless noted
Summary of the method: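 40 nM 15hLO-1 + cpd, 15 min RT; start w/ 50 uM AA (final), 6 min RT; stop/detect w/ 200 uM XO + 300 uM Fe(II) in 50 mM H2SO4, 30 min; A573/A405. Buffer 25 mM Hepes pH 7.5, 0.01% Triton X-100. No-enzyme wells as negative control.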
On the % scale 0 is the no-effect control and ±100 the full control effect; potency means the concentration at half of the fitted maximal effect; tags describe the fitted curve by direction and shape.

Sequence of UniProt P16050 (P16050 whole entry, looked up): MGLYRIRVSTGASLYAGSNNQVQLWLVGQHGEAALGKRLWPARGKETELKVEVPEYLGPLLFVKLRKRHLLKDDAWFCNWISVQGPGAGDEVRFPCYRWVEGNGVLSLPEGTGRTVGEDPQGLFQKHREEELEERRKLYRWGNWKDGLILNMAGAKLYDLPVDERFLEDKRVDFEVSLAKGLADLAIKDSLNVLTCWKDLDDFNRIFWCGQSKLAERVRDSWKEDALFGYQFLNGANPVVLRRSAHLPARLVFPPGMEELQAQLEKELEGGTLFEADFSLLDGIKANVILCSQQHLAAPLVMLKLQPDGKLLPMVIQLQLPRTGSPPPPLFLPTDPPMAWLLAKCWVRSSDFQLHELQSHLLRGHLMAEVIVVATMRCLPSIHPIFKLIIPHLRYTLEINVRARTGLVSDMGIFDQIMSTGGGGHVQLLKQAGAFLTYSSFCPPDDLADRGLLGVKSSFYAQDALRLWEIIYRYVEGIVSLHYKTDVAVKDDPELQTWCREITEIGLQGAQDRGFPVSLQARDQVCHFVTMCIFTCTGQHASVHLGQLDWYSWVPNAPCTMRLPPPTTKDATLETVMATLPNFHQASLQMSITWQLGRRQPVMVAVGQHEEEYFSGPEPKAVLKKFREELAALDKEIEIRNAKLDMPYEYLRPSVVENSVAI

| SMILES | activity change, negative = inhibition | Potency |
| --- | --- | --- |
| CO[C@@H]1COC(=O)[C@H](Cc2ccccc2)NC(=O)C/C=C\[C@@H](C)[C@H](OC)COC(=O)[C@@H](C)NC(=O)C/C=C\[C@H]1C | inactive: 2.31% [at 11.4 µM] and inactive: 5.99% [at 11.4 µM] |  |
| Clc1cccc(-c2nnc3sc(-c4ccc5c(c4)OCO5)nn23)c1 |  | inconclusive [inhibitor, single point] |
| Cc1nc2cnc(N(C)C)nc2n(C2CC2)c1=O | inactive: -1.33% |  |
| CCN(CC)CCCC(C)n1c(-c2ccccc2)nc2c(NCCO)nc(C)nc21 (stereo not drawn) | inactive: -15.9% |  |
| CCCCSCCCNC(=O)CS(=O)Cc1nc(-c2cccc(C)c2)oc1C (stereo not drawn) |  | inconclusive [inhibitor, single point] |
| CC1(C)CC(O)C(CCC(O)c2ccccc2)C(C)(C)N1 (stereo not drawn) |  | inconclusive [inhibitor, full curve] |
| CC(C#N)Sc1ncnc2sc3c(c12)CCC3 (stereo not drawn) |  | inconclusive [inhibitor, partial curve, poor fit] |
| O=C(Nc1ccc(Cl)cc1)NC1CCCC1Cc1ccco1 (stereo not drawn) |  | inconclusive [inhibitor, single point] |
| Cc1cccn2c(=O)c3cc(C(=O)NCc4ccccn4)n(C)c3nc12 | inactive: 15.7% |  |
| CCOc1ccccc1N1CSC2=C(C#N)C(c3c(OC)ccc4ccccc34)CC(=O)N2C1 (stereo not drawn) |  | inconclusive [inhibitor, partial curve] |
| S=C1N[C@H](c2ccccc2)N[C@H](c2ccccc2)S1 | inactive: -24.1% [at 11.4 µM] |  |
| CCCCOc1ccc(-c2nnn(C(C)(C)C(=O)OC)n2)cc1 | inactive: -4.49% |  |
| Cn1nnnc1SCC(=O)Nc1ccccc1N1CCCCC1 |  | inconclusive [inhibitor, single point] |
| O=C(Cn1cnc2sc(-c3ccccc3)cc2c1=O)NCc1ccco1 |  | inconclusive [inhibitor, full curve] |
| COc1ccc(Cn2nnnc2CN2CCc3ccccc32)cc1 |  | inconclusive [inhibitor, single point] |
| Cc1ccc(Cn2c(SCC(C)C)nc3c2c(=O)n(C)c(=O)n3C)cc1 | inactive: -11.1% |  |
| CC(=O)c1c(N2CCN(Cc3ccccc3)CC2)[nH]c(-c2ccccc2)nc1=S |  | inconclusive [inhibitor, single point] |
| CS(=O)(=O)Cc1nc2ccccc2oc1=O |  | inconclusive [inhibitor, single point] |
| Cc1ccc2c(c1)-c1cc(C)nn1C(c1ccc3c(c1)OCO3)N2 (stereo not drawn) |  | inconclusive [inhibitor, partial curve] |
| CC(=O)OC1CCC2C3CCc4cc(O)ccc4C3CCC12C (stereo not drawn) |  | inconclusive [inhibitor, partial curve] |
| CCCCn1c(N2CCC(Cc3ccccc3)CC2)nc2c1c(=O)[nH]c(=O)n2C |  | inconclusive [inhibitor, single point] |
| Cc1cc(=O)n(C)c(=O)n1CCCNc1ccccc1 |  | inconclusive [inhibitor, partial curve] |

| SMILES | activity change, negative = inhibition | Potency |
| --- | --- | --- |
| C[C@H]1C=C2C=C[C@H](C)[C@H](CC[C@@H]3C[C@@H](O)CC(=O)O3)[C@H]2[C@@H](OC(=O)[C@@H](C)CCO)C1 |  | inconclusive [inhibitor, single point] |
| Cc1cccn2cc(CNc3ccccc3)nc12 | inactive: 2% |  |
| COc1ccc(C2(C)NC(=O)N(Cc3cc(Cl)cc4c3OCOC4)C2=O)cc1OC (stereo not drawn) | inactive: 14.1% |  |
| N#Cc1nc(-c2ccc(OCc3ccccc3)cc2)oc1N1CCOCC1 | inactive: -5.05% |  |
| O=C(COc1ccc2oc(-c3ccccc3)cc(=O)c2c1)NCc1ccco1 |  | inconclusive [inhibitor, single point] |
| CC(C)Oc1ccccc1C1CC(=O)Nc2cc3c(cc21)OCCO3 (stereo not drawn) |  | inconclusive [inhibitor, single point] |
| C=CCSC1=N/C(=C\C=C\c2ccco2)C(=O)S1 |  | active: 20 µM |
| Cc1ccc(C)n1CCN1CCN(C(=O)c2ccco2)CC1 |  | inconclusive [inhibitor, partial curve] |
| NC1=NC(S)C2N=CN=C2N1 (stereo not drawn) |  | inconclusive [inhibitor, partial curve] |
| Cc1onc(-c2ccccc2Cl)c1C(=O)Nc1cccc(-c2nc3ncccn3c2C)c1 |  | inconclusive [inhibitor, partial curve] |
| CC[C@]1(O)C[C@@H]2CN(CCc3c([nH]c4ccccc34)[C@](C(=O)OC)(c3cc4c(cc3OC)N(C)[C@H]3[C@](O)(C(=O)OC)[C@@H](C(=O)OC)[C@@]5(CC)C=CCN6CC[C@@]43[C@@H]65)C2)C1 |  | inconclusive [inhibitor, single point] |
| Cc1cc(C)c(-c2cc([C@H](C)O/N=C3/[C@H]4OC4[C@@H](O)[C@H]4[C@H]3CCn3c(=O)n(-c5ccccc5)c(=O)n34)on2)c(C)c1 (stereo partly drawn) | inactive: 0.505% [at 11.4 µM] |  |
| Cc1nn(-c2ccc(S(=O)(=O)O)cc2)c(O)c1N=Nc1ccc(-c2ccc(N=Nc3ccc4c(S(=O)(=O)O)cc(S(=O)(=O)O)c(N)c4c3O)c(O)c2)cc1O.[Cu].[Cu] |  | active: 3.98 µM |
| Cc1cccn2c(=O)c3cc(C(=O)N4CCCc5ccccc54)n(C)c3nc12 | inactive: -7.31% |  |
| O=C1CCSc2cccc3cccc(c23)N1 | inactive: -0.132% |  |
| O=C(/C=C\Nc1ccc2c(c1)OCO2)c1ccccn1 | inactive: -21.7% |  |
| CN(C)S(=O)(=O)N1CCN(CC(O)COc2ccc3cc(Br)ccc3c2)CC1 (stereo not drawn) |  | inconclusive [inhibitor, single point] |
| CCOc1ccc(N(C)S(=O)(=O)c2ccc3[nH]cc(C(=O)NCC4CCCO4)c(=O)c3c2)cc1 (stereo not drawn) |  | inconclusive [inhibitor, partial curve, poor fit] |
| Nc1ccccc1NC1=CC(=O)CC(c2ccco2)C1 (stereo not drawn) |  | inconclusive [inhibitor, partial curve] |
| COC(=O)c1cc(NCc2c(F)cccc2Cl)ccc1N1CCOCC1 |  | active: 15.8 µM |
| Cc1cc([C@](C)(N)C(=O)O)ccc1P(=O)(O)O | inactive: -6.75% [at 25.6 µM] |  |
